Measured values: PubChem BioAssay AID1347417 (National Center for Advancing Translational Sciences (NCATS), 2020)
Among all 120,000 compounds or so, about 5,300 (4.4%) were called active. The shares of active, inactive and inconclusive entries below differ from those in the screen. The call rests on the fitted dose curve; in most records, active means well fitted inhibition curve with a large enough effect; inconclusive means small, poorly fitted or top-dose-only effect; inactive means no such curve, though single readings can be large or run the other way. Where the call is inconclusive, the potency comes from a doubtful curve fit.

Assay: qHTS Primary assay for Inhibitors of Plasmodium falciparum Dd2 growth in vitro; further: nearly all actives have a fitted effect of over 65% in size
Conditions: P. falciparum Dd2 growth, SYBR Green, 72 h; series mostly up to 28.9 µM
Method in brief: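 Infected erythrocytes (Dd2, 0.3% parasitemia, 2.5% hematocrit final) are added to compound in RPMI-1640/Albumax II medium, grown 72 h at 37C in low oxygen, then lysed with saponin/Triton-X containing SYBR Green and read by fluorescence.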
Potency means the concentration at half of the fitted maximal effect; tags describe the fitted curve by direction and shape.

Structure (SMILES)	Potency
COCCc1noc([C@@H]2CN(Cc3ccc4c(c3)CCO4)C[C@H]2CO)n1	inconclusive: 2.51 µM [inhibitor, single point]
CCCCCn1c(CCCNC(=O)c2cccc(C)c2)nc2ccccc21	inconclusive: 17.8 µM [inhibitor, single point]
CCn1cc(CN2CCC(N3C(=O)C4(CCCCC4)C3c3ccccc3)CC2)cn1 (stereo not given)	inconclusive: 1.58 µM [inhibitor, partial curve, poor fit]
COc1cc(F)c(CN2CCC3(CCCNC3)C2)c(F)c1 (stereo not given)	inconclusive: 5.01 µM [inhibitor, partial curve, poor fit]
CN(C)CCNC(=O)c1ccc(-c2nnc3ccc(NC(=O)C4CCC4)cn23)cc1	inconclusive: 3.98 µM [inhibitor, single point]
CC[C@H]1CN2CC[C@H]1C[C@@H]2CNCc1cccc(C#N)c1	inconclusive: 6.31 µM [inhibitor, single point]
COc1cc2c(cc1OC)C(CNS(=O)(=O)c1ccc(C)cc1)N(C(=O)NC(C)(C)C)CC2 (stereo not given)	inconclusive: 3.16 µM [inhibitor, single point]
COc1ccc(C(=O)N2CC(Oc3ccccc3-c3nc(-c4cnccn4)no3)C2)cn1	inconclusive: 7.94 µM [inhibitor, partial curve, poor fit]
COc1ccccc1NC(=O)N1CC[C@H]2CC(=O)N([C@H](C(N)=O)C(C)C)CC[C@H]2C1	inactive
CCN(CC)c1ccc(CNC(=O)c2ccc3c(c2)n(C)c(=O)c2ccnn23)cc1	inconclusive: 1.78 µM [inhibitor, single point]
Cc1nc(-c2ccccc2)n(Cc2nc(-c3cccc(Cl)c3)oc2C)c(=O)c1CCO	inactive
CCOc1ccc(CCNc2ncnc3onc(-c4ccc(Cl)cc4)c23)cc1	inconclusive: 11.2 µM [inhibitor, single point]
CN(C)c1cccc(-c2cn(C)c(=O)n3cc(CN4CCNC(=O)C4)nc23)c1	inactive
CC1CCN(S(=O)(=O)c2ccc3nc(NCc4ccc(F)cc4)ccc3c2)CC1	inconclusive: 10 µM [inhibitor, single point]
Cc1ccccc1Nc1c(-c2c[nH]c3ccccc23)nc2ccccn12	inconclusive: 8.91 µM [inhibitor, single point]
Oc1ccccc1CN[C@H]1[C@H](O)[C@@H](N2CCN(c3ccccc3)CC2)[C@@H]2OC[C@H]1O2	inconclusive: 11.2 µM [inhibitor, partial curve, poor fit]
O=C1Cc2c(-c3ccccc3Cl)n[nH]c2CN1CC1CCOCC1	inactive
CCn1nnc2cc(C(=O)Nc3ccc(C)cc3Br)ccc21	inactive
O=C(CCc1nc(C2CCOC2)no1)NC1CCCCCCC1 (stereo not given)	inactive
Cc1ccc(Cc2ccccc2C(=O)N2CCOC(C(F)(F)F)C2)cc1 (stereo not given)	inconclusive: 17.8 µM [inhibitor, partial curve, poor fit]
CCNC(=O)O[C@@H]1CC[C@]2(C)C(CC[C@@H](O)[C@H]2CC(=O)NCc2cc(F)cc(F)c2)[C@]1(C)CO (stereo not given in full)	inactive
COc1ccc(OC)c(CNC(=O)c2cc3ccc4cccnc4c3[nH]2)c1	inconclusive: 10 µM [inhibitor, partial curve, poor fit]

Structure (SMILES)	Potency
COc1ccc(C2(C(=O)N3C[C@@H](CO)[C@H](c4ccccn4)C3)CC2)cc1	inactive
COc1ccc(S(=O)(=O)N2CCC3(CC2)CC(OCC2CC2)CCO3)cc1 (stereo not given)	active: 3.55 µM
Cc1ccc(S(=O)(=O)c2nnn3c2nc(N2CCC(C)CC2)c2cc(Cl)ccc23)cc1C	active: 11.2 µM
C=C[C@H]1CN2CC[C@H]1C[C@@H]2CNCc1ccc(SC)cc1	active: 7.08 µM
COc1ccc(Nc2sc(C(=O)c3ccccc3)c(N)c2C(=O)Nc2cc(C)ccc2C)c(OC)c1	inconclusive: 14.1 µM [inhibitor, single point]
CCc1ccc(NC(=O)c2sc3nc(C)c(C(=O)Nc4ccc(C)cc4C)c(-c4ccco4)c3c2N)cc1	inconclusive: 3.16 µM [inhibitor, full curve]
CCc1ccccc1NC(=O)CN(c1ccc(OC)cc1)S(=O)(=O)c1c(C)n[nH]c1C	inconclusive: 8.91 µM [inhibitor, single point]
CCc1ocnc1C(=O)N[C@@H]1CCOC[C@H]1OCC1CCC1	inactive
COc1cccc(N2CC(C(=O)NCCSC)NC2=O)c1 (stereo not given)	inconclusive: 12.6 µM [inhibitor, partial curve]
Cc1ccc(NC(=O)c2cc(S(=O)(=O)NCCC3=CCCCC3)ccc2F)cc1C	inconclusive: 12.6 µM [inhibitor, single point]
CCOc1ccc(NC(=O)c2ccc(F)c(S(=O)(=O)N(Cc3ccc(C(=O)OC)cc3)Cc3ccc(OC)c(OC)c3)c2)cc1	inconclusive: 12.6 µM [inhibitor, single point]
O=C(Cn1cc(C(=O)c2ccco2)c2ccccc21)Nc1ccccc1	inconclusive: 11.2 µM [inhibitor, single point]
O=C(Nc1cccc(F)c1)N1CCC(OCCOc2cccnc2)CC1	inconclusive: 11.2 µM [inhibitor, partial curve]
COc1ccccc1NC(=O)C1=C(C)Nc2nc3ccccc3n2C1c1ccccc1Cl (stereo not given)	inconclusive: 7.94 µM [inhibitor, single point]
COc1ccc(Cl)cc1Nc1ccc2cc(S(=O)(=O)N3CCCCC3)ccc2n1	inconclusive: 17.8 µM [inhibitor, single point]
O=C(Cn1nc2c(cc1=O)CCCCC2)Nc1nc(-c2ccccn2)cs1	inactive
CNC(=O)[C@@H](Cc1ccccc1)N1CCC[C@H]1C(=O)NC(C)(C)C	inactive
CN(CC1CCOCC1)S(=O)(=O)c1ccc(F)cc1	inactive
O=C(Nc1ccc(-c2nnc3n2CCCC3)cc1)c1ccc(F)cc1	inconclusive: 8.91 µM [inhibitor, partial curve, poor fit]
COC[C@@H]1CN(c2ncccn2)C[C@H]1C(=O)NCCn1cccn1	inactive
O=C(Nc1ccc2c(N3CCCC3)ncnc2c1)C1CCCO1 (stereo not given)	inconclusive: 8.91 µM [inhibitor, partial curve, poor fit]
CCOC(=O)c1ccc(NC(=O)N2CC3CCCN3c3ccccc32)cc1 (stereo not given)	inconclusive: 20 µM [inhibitor, single point]

Structure (SMILES)	Potency
CC(C)CN1Cc2ccccc2-n2ccnc2C12CCN(C(=O)c1ccc(F)cc1)CC2	inconclusive: 2.24 µM [inhibitor, partial curve, poor fit]
CCOC(=O)N1CCN(Cc2nc3cc(NC(=O)c4ccccc4Cl)ccc3n2C(C)C)CC1	inconclusive: 6.31 µM [inhibitor, partial curve, poor fit]
CC(C)(C(=O)O)C1CCOCC1	inactive
CC(=O)N1CCc2c(sc3c2c(=O)n(-c2ccccc2Cl)c(=O)n3Cc2cccc(C)c2)C1	inconclusive: 15.8 µM [inhibitor, single point]
C=CCCC(CN1CCCOCC1)Oc1cc(C#N)ccn1 (stereo not given)	inconclusive: 8.91 µM [inhibitor, single point]
CC(C)NC(=O)N1CC(Oc2cccc(-c3nc(-c4ccccc4)no3)c2)C1	inconclusive: 1.26 µM [inhibitor, single point]
COc1cc2nc(NC(=O)c3ccc(S(=O)(=O)N4CCc5ccccc54)cc3)sc2cc1OC	inconclusive: 11.2 µM [inhibitor, single point]
CC1CCCCN1C(=O)c1ccc2c(c1)N(Cc1ccc(F)cc1)C(=O)c1ccccc1S2(=O)=O (stereo not given)	inconclusive: 4.47 µM [inhibitor, partial curve, poor fit]
CCN(CCCNC(=O)c1cc2c(=O)n(CC)c3ccccc3c2s1)Cc1ccccc1	active: 4.47 µM
Cc1ccc(S(=O)(=O)NC[C@H]2O[C@@H](CC(=O)NCc3ccc(F)cc3)[C@H](O)[C@@H]2O)cc1	inactive
Cc1ccnc(NCCNC(=O)C2CCC(=O)N(CC3CCCCC3)C2)c1 (stereo not given)	inconclusive: 3.16 µM [inhibitor, single point]
CC1=C[C@@H](CNC(=O)Nc2ccccc2)[C@H](C(C)C)C[C@H]1Cc1nnc(-c2ccncc2)o1	inconclusive: 5.01 µM [inhibitor, partial curve, poor fit]
COc1ccc(Nc2ccc3c(n2)CN(Cc2ccccc2)C(=O)CO3)cn1	inactive
O=C(Nc1ccc2c(N3CCCC3)ncnc2c1)c1cc(F)ccc1Cl	active: 5.01 µM
Cc1cc(=O)c(C(=O)N2CCC3(CC2)CC(C(=O)O)N(C)C3)c(C)[nH]1 (stereo not given)	inactive
CN1C(=O)CC(C(=O)O)C12CCN(C(=O)CCc1cccnc1)CC2 (stereo not given)	inactive
Cc1ccc(-c2nnn3c2nc(NC2CCC(C)CC2)c2ccccc23)cc1 (stereo not given)	inconclusive: 2.82 µM [inhibitor, partial curve, poor fit]
COC1CCOC2(CCN(C(=O)c3cc(-c4ccccc4)n[nH]3)CC2)C1 (stereo not given)	inconclusive: 5.01 µM [inhibitor, partial curve, poor fit]
COc1ccc(-n2cc(-c3ccc4c(c3)OCO4)n(CC(=O)Nc3cc(Cl)ccc3C)c2=O)cc1	inconclusive: 12.6 µM [inhibitor, partial curve, poor fit]
Cc1nn(C)c2c1c(-c1ccccc1)cc(=O)n2Cc1ccc(F)cc1	inconclusive: 17.8 µM [inhibitor, single point]
COCCNC(=O)[C@@H]1C[C@@H](O)CN1C1CCN(C(=O)c2cc(F)ccc2F)CC1	inactive
